Data reported in PMC6975629 (Nano Letters, 2019).

Tests used:
mCherry, isolated form [1] = molecular target: T1, mCherry, isolated form (engineered mCherry (Discosoma sp. DsRed …)); experiment: ITC
mCherry, isolated form [2] = molecular target: T1, mCherry, isolated form; experiment: SPR

B1: VHH(WT), anti-mCherry VHH domain, isolated form (VHH)
VHH: QVQLVESGGSLVQPGGSLRLSCAASGRFAESSSMGWFRQAPGKEREFVAAISWSGGATNYADSAKGRFTLSRDNTKNTVYLQMNSLKPDDTAVYYCAANLGNYISSNQRLYGYWGQGTQVTVSS
mCherry, isolated form [1]
  Kd: 69 nM
  dH: -5190 cal·mol^–1
mCherry, isolated form [2]
  Kd: 163 nM
  koff: 0.00853 s⁻¹
  kon: 52300 M⁻¹ s⁻¹
